The campaign covered roughly 310,000 compounds. About 11,000 (3.5%) were called active. Inconclusive means that the source gave no clear call. Such entries were picked first, then a sample of the others. Calls come from the whole dose curve; as a rule, active = well fitted inhibition curve with a large enough effect; inconclusive = small, poorly fitted or top-dose-only effect, or effect the other way; inactive = flat fitted curve, though single readings scatter. No potency is given beside an inconclusive call; the fits are too rough.
Assay: VP16 counterscreen qHTS for inhibitors of ROR gamma transcriptional activity;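 note: Gal4-VP16 expression switched on by copper sulfate through the metallothionein promoter; nearly all actives have a fitted effect of over 50% in size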
Details: Drosophila S2 Gal4-VP16 UAS-luciferase, luminescence, 20 h; activity, negative = inhibition: at 53.6 µM (top of the series)
% is set by controls: 0 for no effect and ±100 for the full control effect; potency is the fitted concentration of half-maximal effect; tags give direction and shape of the fitted curve.

With `CCc1nnc(NC(=O)c2ccc(S(=O)(=O)N(CC)CC)cc2)s1` as the molecule, how does the Potency read?
Its Potency is inconclusive [activator, full curve].

For `CCN(CC)S(=O)(=O)c1ccc(O)c(C(=O)OCC(=O)N2c3ccccc3CC2C)c1` (stereo not drawn), which “activity, negative = inhibition” value is on record?
Its value is inactive: -0.156%.

Which Potency does the source give for `N/C(=N\OC(=O)c1ccc(Cl)cc1)c1ccccn1` here?
The Potency was active: 10 µM.

With `S=C(Nc1cccc(Br)c1)c1ccccc1` as the molecule, how does the Potency read?
Its Potency is inconclusive [inhibitor, partial curve, poor fit].

For `Cc1ccccc1NC(=O)CSC(N)=O`, which Potency is on record?
The Potency was inconclusive [inhibitor, single point].

Which Potency does the source give for `CC(C)(C)c1cc(NCc2ccccn2)n2ncc(-c3ccc(Cl)cc3)c2n1` here?
The Potency was inconclusive [inhibitor, full curve].

For `CC(C(=O)O)N1C(=O)C2C3c4ccccc4C(c4ccccc43)[C@@H]2C1=O` (stereo partly drawn), which “activity, negative = inhibition” value is on record?
Its value is inactive: 1.13%.

With `O=c1c2c3c(sc2nc2n1CCCC2)CCCC3` as the molecule, how does the Potency read?
Its Potency is inconclusive [activator, partial curve, poor fit].

For `O=C(Nc1cccc(-n2cnnn2)c1)c1ccc(Cl)cc1Cl`, which Potency is on record?
Its Potency is inconclusive [inhibitor, single point].

With `Cc1csc(NC(=O)c2ccc3nc[nH]c3c2)n1` as the molecule, how does the Potency read?
The Potency was inconclusive [inhibitor, partial curve, poor fit].

Which Potency does the source give for `O=C1CCN(Cc2ccccc2)CCN1[C@H](CSc1ccccc1)c1ccccc1` here?
The Potency was inconclusive [inhibitor, single point].

Which Potency does the source give for `O=C1/C(=C/c2ccc(O)cc2)COc2ccccc21` here?
The Potency was inconclusive [inhibitor, single point].

For `O=C(OCC(=O)N1CCN(c2ccccc2)CC1)c1ccc[n+]([O-])c1`, which Potency is on record?
Its Potency is inconclusive [inhibitor, partial curve].

With `O=C(N/N=C/c1ccc(-c2ccc(Cl)c(C(=O)O)c2)o1)c1cc2c(ccc3ccccc32)o1` as the molecule, how does the “activity, negative = inhibition” value read?
The value was inactive: -3.99%.

Which “activity, negative = inhibition” value does the source give for `COc1ccccc1CNC(=O)COC(=O)c1c(C)nn(-c2ccccc2)c1Cl` here?
The value was inactive: 4.25%.

With `CCN(CC)S(=O)(=O)c1ccc(NC(=O)C2c3ccccc3Oc3ccccc32)cc1` as the molecule, how does the Potency read?
The Potency was inconclusive [activator, single point].

With `COc1ccc(CCNC(=O)c2c(C)nn(CC(C)C)c2Cl)cc1` as the molecule, how does the “activity, negative = inhibition” value read?
The value was inactive: -1.3%.

Which Potency does the source give for `CN(C)c1ccc(N=Cc2nc(-c3ccccc3)oc2O)cc1` here?
Its Potency is inconclusive [inhibitor, single point].

With `COCCN(Cc1cc2cc(C)cc(C)c2nc1Cl)C(=O)Nc1ccccc1` as the molecule, how does the “activity, negative = inhibition” value read?
The value was inactive: 9.48%.

For `Cc1ccccc1-n1c(SCc2ccccn2)nc2n[nH]c(C)c2c1=N`, which Potency is on record?
The Potency was inconclusive [inhibitor, single point].

Which “activity, negative = inhibition” value does the source give for `CC(C)Nc1nc(Cl)nc(NC2CCCCC2)n1` here?
Its value is inactive: -1.06%.

Which “activity, negative = inhibition” value does the source give for `N#C/C(=C\c1c(Cl)cccc1Cl)c1nc2ccccc2o1` here?
The value was inactive: -27.5%.

Which Potency does the source give for `CCc1nnc(NC(=O)CSc2nc3ccccc3o2)s1` here?
The Potency was inconclusive [inhibitor, partial curve].

Which Potency does the source give for `Cn1cccc1/C=N\NC(=O)c1cncc(Br)c1` here?
The Potency was inconclusive [inhibitor, single point].

With `CCC(=O)c1ccc(N2CCN(C(=O)c3cccc(F)c3)CC2)c(F)c1` as the molecule, how does the Potency read?
Its Potency is inconclusive [inhibitor, single point].

Which Potency does the source give for `COCCNC(=S)Nc1ccccn1` here?
The Potency was inconclusive [inhibitor, single point].

For `Cc1c(C(=O)Nc2ccccc2)sc2nc[nH]c(=O)c12`, which “activity, negative = inhibition” value is on record?
The value was inactive: 27.4%.

With `Cc1cc(NC(=O)CSCCO)no1` as the molecule, how does the “activity, negative = inhibition” value read?
The value was inactive: -6.51%.

With `CC(C)C[C@H](NC(=O)OC(C)(C)C)c1n[nH]c(=S)n1N` as the molecule, how does the Potency read?
Its Potency is inconclusive [inhibitor, single point].

With `CC(C)(C)OC(=O)NCc1ccc(CNC(=O)c2[nH]cnc2C(=O)NCC(=O)OCc2ccccc2)cc1` as the molecule, how does the Potency read?
Its Potency is active: 22.4 µM.

Which Potency does the source give for `Cc1ccc2c(c1)COc1c3ccc(C(=O)O)cc3nn1-2` here?
Its Potency is active: 5.01 µM.

Which Potency does the source give for `CC(C)NC(=O)C1CCN(C(=O)c2cc3sccc3n2Cc2ccc(F)cc2)CC1` here?
The Potency was inconclusive [inhibitor, single point].

For `O=C(CSc1nnnn1C1CCCC1)NCc1ccc2c(c1)OCO2`, which “activity, negative = inhibition” value is on record?
Its value is inactive: -3.89%.

With `Cc1ccc(NC(=O)Nc2cccc([N+](=O)[O-])c2)cc1F` as the molecule, how does the Potency read?
Its Potency is inconclusive [inhibitor, single point].

Which “activity, negative = inhibition” value does the source give for `NC1=NC(S)C2N=CN=C2N1` (stereo not drawn) here?
The value was inactive: 29.8%.

For `CCc1ccc2nc(NC(=O)CSCc3c(C)noc3C)sc2c1`, which Potency is on record?
The Potency was inconclusive [inhibitor, single point].

Which “activity, negative = inhibition” value does the source give for `O=C(CSc1nnc(NC(=O)c2ccco2)s1)Nc1ccccc1` here?
Its value is inactive: 12.9%.

With `Cc1cccc(-n2ncc3c(NCCCN4CCCC4=O)ncnc32)c1` as the molecule, how does the Potency read?
The Potency was inconclusive [inhibitor, partial curve].

For `CC(C)c1ccc(NC(=O)COC(=O)/C=C/c2cccc(Br)c2)cc1`, which Potency is on record?
Its Potency is inconclusive [inhibitor, single point].

For `Cc1cc(C)cc(C(=O)NCC(=O)OCC(=O)N(C)C2CCS(=O)(=O)C2)c1` (stereo not drawn), which Potency is on record?
The Potency was inconclusive [activator, single point].

For `COc1ccc(F)cc1C(=O)C1CCCN(C(=O)CCN2CCCCO2)C1` (stereo not drawn), which Potency is on record?
The Potency was inconclusive [activator, single point].

With `CN(C)CCNS(=O)(=O)c1ccc(N2CCN(c3ccc(F)cc3)CC2)c([N+](=O)[O-])c1` as the molecule, how does the “activity, negative = inhibition” value read?
Its value is inactive: -17.3%.

For `Cc1cccc(C)c1OCc1nnc(SCC(=O)Nc2nccs2)n1-c1ccccc1`, which Potency is on record?
Its Potency is inconclusive [inhibitor, partial curve, poor fit].

Which Potency does the source give for `O=C1C(Cl)=C(NC2CCc3ccccc32)C(=O)c2ncccc21` (stereo not drawn) here?
The Potency was active: 4.47 µM.

Which Potency does the source give for `CC(C)(C)c1cn(-c2ccc(Cl)cc2)c(=S)[nH]1` here?
Its Potency is active: 5.62 µM.

Which Potency does the source give for `CC[C@H](C)[C@H](NC(=O)c1ccc(Cl)cc1)C(=O)OCC(=O)c1ccc2c(c1)NC(=O)CO2` here?
Its Potency is inconclusive [inhibitor, single point].

For `O=C(c1ccc2c(c1)N(Cc1cccc(Cl)c1)C(=O)c1ccccc1S2(=O)=O)N1CCN(c2ccccn2)CC1`, which “activity, negative = inhibition” value is on record?
Its value is inactive: -7.53%.

With `CCOC(=O)c1ccc(NC(=S)NCc2ccccc2)cc1` as the molecule, how does the Potency read?
The Potency was inconclusive [inhibitor, single point].
